Experimental data reported in US20240027454.

Assays:
[1] = target: T1, AAPVA-RBB linked through ethylenediamine-glycyl spacer to polyacrylate (not fully specified)
T1 chain: AAPVX

[2] = target: T2, Fmoc-F-V-T(Bzl)-F- indoxyl ester (not fully specified)
T2 chain: FVTF

[3] = target: T3, Fmoc-AAPVAV-{2-hydroxy-3-[1-(5N-RBB-methyl)1,2,3-triazolyl)}propylamide
T3 chain: XAPVAX

H-AAPFA-RBB = target: T4, H-AAPFA-RBB
T4 chain: AAPFX

[4] = target: T5, AAPVA-RBB linked to polymer, product of Step A of Example 62 after trifluoroacetic acid treatment (not fully specified)
T5 chain: AAPVX

[5] = target: Fmoc-AAPV-{2-hydroxy-3-[1-(5-(N-RBB-methyl)1,2,3-triazolyl)}propylamide
[6] = target: T6, H-AAPVAV-{2-hydroxy-3-[1-(5-(N-RBB-methyl)1,2,3-triazolyl)}propylamide
T6 chain: AAPVAX

[7] = target: T7, AAPVA-RBB linked to poly-(N-acroyl-Boc-Lys-OH)-co-(acroyl-Cys(Trt)-OH)
T7 chain: AAPVX

[8] = target: T8, 4-([4-(H-Ala-Ala-Pro-Val-Ala)amido N-piperazino]phenyl)-bis-(4-dimethyl-aminophenyl)-carbenium ion polyacrylamide (not fully specified)
T8 chain: AAPVX

[9] = target: AAPVA-RBB Bound to Paper Membrane
[10] = target: T9, AAAPV-RBB linked through Jeffamine EDR 176 to polyacrylate quenched with N,N-dioctyl amine (not fully specified)
T9 chain: AAAPX

[11] = target: Fmoc-AAPV-4-naphthol ester
[12] = target: HEC-EDA-N-propionyl-AAPF-RBB
[13] = target: H-AAPV-{2-hydroxy-3-[1-(5-(N-RBB-methyl)1,2,3-triazolyl)}propylamide)
Fmoc-APV-Indoxyl ester = target: T10, Fmoc-APV-Indoxyl ester
T10 chain: APV

H-AAPVAA-RBB = target: T11, H-AAPVAA-RBB
T11 chain: AAPVAX

H-AAAPM-RBB = target: T12, H-AAAPM-RBB
T12 chain: AAAPX

[14] = target: Fmoc-AAPV-4-methoxy-1-naphthol ester
[15] = target: Fmoc-AAPF-aminoethyl-(Remazol Black B)-(N-acetyl)-ethylamide
[16] = target: T13, AAAPVV-RBB linked through Jeffamine EDR 176 to polyacrylate quenched with N,N-dioctyl amine (not fully specified)
T13 chain: AAAPVX

H-AAPVA-RBB = target: T14, H-AAPVA-RBB
T14 chain: AAPVX

[17] = target: HEC-PEG200-N-propionyl-AAPF-RBB
Fmoc-AAA-indoxyl ester = target: T15, Fmoc-AAA-indoxyl ester
T15 chain: AAA

B1: pancreatic porcine elastase (protein)
chain: VVGGTEAQRNSWPSQISLQYRSGSSWAHTCGGTLIRQNWVMTAAHCVDRELTFRVVVGEHNLNQNDGTEQYVGVQKIVVHPYWNTDDVAAGYDIALLRLAQSVTLNSYVQLGVLPRAGTILANNSPCYITGWGLTRTNGQLAQTLQQAYLPTVDYAICSSSSYWGSTVKNSMVCAGGDGVRSGCQGDSGGPLHCLVNGQYAVHGVTSFVSRLGCNVTRKPTVFTRVSAYISWINNVIASN
Porcine Elatase Cleavage [1]: ++
Porcine Elatase Cleavage (Fmoc-AAPVA-RBB): +++
Porcine Elatase Cleavage (CMC 9M31F-AAPF-RBB): ++
Porcine Elatase Cleavage (CMC 9M31F-AAPFA-RBB): ++
Porcine Elatase Cleavage (Fmoc-AAPF-RBB): ++
Porcine Elatase Cleavage (H-AAPF-RBB): ++
Porcine Elatase Cleavage [2]: 0
Porcine Elatase Cleavage [3]: 0
Porcine Elatase Cleavage (H-AAPFA-RBB): +++
Porcine Elatase Cleavage [4]: +
Porcine Elatase Cleavage [5]: 0
Porcine Elatase Cleavage [6]: 0
Porcine Elatase Cleavage [7]: +
Porcine Elatase Cleavage (Fmoc-AAPF-Indoxyl ester): +
Porcine Elatase Cleavage (Fmoc-AAPFA-RBB): +
release of A-CV, mass peak [8]: Treatment with porcine and human elastase releases A-CV, as proven by the appearance of a mass peak at m/z=484
Porcine Elatase Cleavage (Fmoc-AAPA-Indoxyl ester): +++
Porcine Elatase Cleavage [9]: 0
Porcine Elatase Cleavage [10]: +++
Porcine Elatase Cleavage [11]: +
Porcine Elatase Cleavage [12]: +++
Porcine Elatase Cleavage [13]: 0
Porcine Elatase Cleavage (Fmoc-APV-Indoxyl ester): +
Porcine Elatase Cleavage (Fmoc-AAAA-Indoxyl ester): 0
Porcine Elatase Cleavage (H-AAPVAA-RBB): ++
Porcine Elatase Cleavage (H-AAAPM-RBB): 0
Porcine Elatase Cleavage [14]: +
Porcine Elatase Cleavage [15]: +
Porcine Elatase Cleavage [16]: +++
Porcine Elatase Cleavage (H-AAPVA-RBB): +++
Porcine Elatase Cleavage (Fmoc-AAPV-(2-Napthol)): ++
Porcine Elatase Cleavage [17]: ++
Porcine Elatase Cleavage (Fmoc-AAA-indoxyl ester): ++
Porcine Elatase Cleavage (Fmoc-AAAPM-RBB): 0
